# Out of some 310,000 compounds screened, about 14,000 (4.5%) showed an effect of 50% or more. Effects have a minus sign here. This is one part of the list.
# Target: human ether-à-go-go-related gene (hERG) potassium channel (human, UniProt Q12809)
# Experiment: primary screen, population patch clamp on CHO cells stably expressing hERG
# 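Note: peak tail current of the secondary pulse compared with the same well before compound.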
# human ether-à-go-go-related gene (hERG) potassium channel, sequence (Q12809 whole entry, looked up): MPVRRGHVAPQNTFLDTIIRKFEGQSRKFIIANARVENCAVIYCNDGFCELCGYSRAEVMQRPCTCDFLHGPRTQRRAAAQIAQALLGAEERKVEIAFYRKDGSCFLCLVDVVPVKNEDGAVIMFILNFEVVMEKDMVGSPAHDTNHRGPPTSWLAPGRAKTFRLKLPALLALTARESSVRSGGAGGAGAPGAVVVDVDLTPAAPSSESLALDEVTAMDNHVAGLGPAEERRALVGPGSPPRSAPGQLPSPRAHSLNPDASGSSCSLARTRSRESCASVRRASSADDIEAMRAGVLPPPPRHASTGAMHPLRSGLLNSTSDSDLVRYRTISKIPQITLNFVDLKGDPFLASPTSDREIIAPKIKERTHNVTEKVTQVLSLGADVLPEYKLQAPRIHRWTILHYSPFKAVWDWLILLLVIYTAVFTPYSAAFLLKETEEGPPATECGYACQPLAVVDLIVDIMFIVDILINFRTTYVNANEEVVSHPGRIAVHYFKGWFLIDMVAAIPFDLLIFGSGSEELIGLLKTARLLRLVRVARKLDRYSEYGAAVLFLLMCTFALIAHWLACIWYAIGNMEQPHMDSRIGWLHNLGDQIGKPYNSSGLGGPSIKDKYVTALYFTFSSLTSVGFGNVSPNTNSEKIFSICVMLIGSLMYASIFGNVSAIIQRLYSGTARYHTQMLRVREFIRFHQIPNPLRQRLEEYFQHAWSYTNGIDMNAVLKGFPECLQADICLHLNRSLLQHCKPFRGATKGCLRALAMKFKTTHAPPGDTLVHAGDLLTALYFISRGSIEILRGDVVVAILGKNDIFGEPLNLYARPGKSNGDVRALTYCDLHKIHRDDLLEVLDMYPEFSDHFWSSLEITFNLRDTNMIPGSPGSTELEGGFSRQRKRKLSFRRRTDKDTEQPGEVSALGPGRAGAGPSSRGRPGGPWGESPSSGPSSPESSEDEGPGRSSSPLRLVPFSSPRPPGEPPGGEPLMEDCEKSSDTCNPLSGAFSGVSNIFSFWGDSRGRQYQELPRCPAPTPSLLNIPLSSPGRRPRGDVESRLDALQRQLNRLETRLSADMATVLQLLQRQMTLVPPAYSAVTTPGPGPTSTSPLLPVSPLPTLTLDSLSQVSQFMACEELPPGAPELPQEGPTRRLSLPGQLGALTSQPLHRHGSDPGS
row,Structure (SMILES),"hERG current change (%, negative = inhibition) at 10uM"
1,COc1ccc(C(=O)NCc2ccc(-c3nc4ccccc4s3)cc2)cc1OC,2.25%
2,CCOC(=O)C(OC(=O)c1sc(=S)n(C)c1C)C(C)=O (stereo not drawn),16.9%
3,COc1ccc(S(=O)(=O)NC2CC(C)(C)NC(C)(C)C2)cc1,7.36%
4,CCc1nnc(NC(=O)c2cc(S(=O)(=O)N(C)c3ccc(OC)cc3)ccc2Cl)s1,3.48%
5,CCOC(=O)c1cc2c(=O)n3ccccc3nc2n(C(C)C)c1=NC(=O)c1c(-c2c(F)cccc2Cl)noc1C,2.48%
6,O=C(C1=C[C@H](c2csc3ccccc23)C[C@H](OCCCCO)O1)N1CCOCC1,-14.1%
7,Cc1ccc(C(=O)c2sc3c(c2N)c(=O)[nH]c(=O)n3CCc2ccccc2)cc1,12.2%
8,CC(NC(=O)C1CCN(S(=O)(=O)N2CCC3(CC2)OCCO3)CC1)c1ccccc1 (stereo not drawn),20.9%
9,COc1c(O)c(O)c2oc(-c3ccccc3)cc(=O)c2c1OC,-0.202%
10,CCCCN(CCCNC(=O)C1CCN(C(=O)c2cc3sccc3n2C)CC1)Cc1ccccc1,-60.8%
11,Cc1c(F)cccc1NC(=O)CCC(=O)O,12.1%
12,COc1ccc(/C=C/C(=O)c2c(O)ccc3c(C)cc(=O)oc23)cc1,-8.25%
13,Cc1c(C(=O)NNS(=O)(=O)c2ccccc2Cl)sc(=S)n1C,3.32%
14,CC/C=C/C(=O)N1CC2(CC(c3cccc(NC(=O)CCCCC)c3)=NO2)C[C@H]1C(N)=O (stereo partly drawn),-3.68%
15,Cc1ccc(Cl)c(OCCCCN(C)Cc2ccccc2)c1.O=C(O)C(=O)O,-43.8%
16,COc1ccc(OC)c(NC(=O)CSc2nnc3ccc(-c4ccncc4)nn23)c1,-48.7%
17,CCc1noc(C)c1C(=O)Nc1ccc(S(=O)(=O)N2CCCCC2)cc1,-7.54%
18,O=C(c1ccc(NS(=O)(=O)c2ccc(Cl)cc2)cc1)N1CCOCC1,3.98%
19,Cc1ccc(C)c(CSC2=NN3CCCC(=O)N=C3S2)c1,-35.1%
20,O=C(NC1CCCCC1)N1CCCC(c2nc(-c3ccc(S(=O)(=O)N4CCCC4)cc3)no2)C1 (stereo not drawn),2.14%
21,Cc1ccc(C(=O)NCC(c2ccco2)N2CCc3ccccc32)cc1 (stereo not drawn),-13%

row,Structure (SMILES),"hERG current change (%, negative = inhibition) at 10uM"
1,CC(=O)Nc1ccc(NC(=O)c2c(C)nn(-c3ccccc3)c2Cl)cc1C,10%
2,C=CCn1c(O)c(N=NC(=O)c2cccnc2)c2cc(Br)ccc21,-16.1%
3,O=C1c2ccccc2NC(c2ccccc2)N1CCCN1CCOCC1 (stereo not drawn),-7.32%
4,CCn1c(SCC(=O)Nc2ccc(C)cc2)nc2nc3c(cc2c1=O)CCCC3,-43.6%
5,CCOC(=O)C1=C(C)NC(SCC(N)=O)=C(C#N)C1c1ccccc1 (stereo not drawn),-5.21%
6,Cc1cccc(C(=O)NCC(=O)OCC(=O)NCCNC(=O)COC(=O)CNC(=O)c2cccc(C)c2)c1,20.6%
7,COc1ccccc1/C=N/NC(=O)c1ccccc1Cl,10%
8,CCOC(=O)c1sc(/N=C/N(C)C)c(C(=O)OCC)c1C,-9.05%
9,COc1ccc(S(=O)(=O)N2CCCCC2)cc1NC(=O)CN1C(=O)NC(C)(C2CC2)C1=O (stereo not drawn),-9.15%
10,O=C1C(Cl)=C(NCCN2CCOCC2)C(=O)c2ccccc21,-7.64%
11,Cc1cccc(CCNC(=O)CCCOc2cc(=O)n(C)c3ccccc23)c1,-37.2%
12,O=C(c1ccc([N+](=O)[O-])cc1)N1CCC(Cc2ccccc2)CC1,-73.4%
13,COc1ccc(Br)cc1-c1nc(C)c(C(C)=O)n1O,19.4%
14,Nn1c(SCC(=O)NC(=O)NCc2ccccc2)nnc1C1CC1,13.3%
15,CC(OC(=O)Cn1cnc2c1c(=O)n(C)c(=O)n2C)C(=O)N(C)c1ccccc1 (stereo not drawn),16.3%
16,O=C(CSc1nc2c(cnn2-c2ccc(F)cc2)c(=O)[nH]1)N1CCCc2ccccc21,10.1%
17,Cc1nn(CCCC(=O)N2CCN(c3ccc(F)cc3)CC2)c(C)c1[N+](=O)[O-],-62.1%
18,CCc1noc(C)c1C(=O)NNC(=O)c1cc(OC)c(OC)c(OC)c1,-4.26%
19,CC(Sc1ccccc1)C(=O)NN=C1CCCCCC1 (stereo not drawn),2.77%
20,CCOc1ccc(C(=O)Nc2c3c(nn2-c2ccccc2)CS(=O)(=O)C3)cc1,4.84%
21,O=C(Nc1cccc(S(=O)(=O)c2cccc(NC(=O)c3ccco3)c2)c1)c1ccco1,-30.6%

row,Structure (SMILES),"hERG current change (%, negative = inhibition) at 10uM"
1,CCCCNC(=O)CCn1c(=O)c2ccccc2n(CC(=O)N2CC(C)CC(C)C2)c1=O (stereo not drawn),-9.48%
2,O=[N+]([O-])c1ccc(N2CCN(c3ccccn3)CC2)c(Cl)c1,0.0809%
3,COc1ccc(F)cc1S(=O)(=O)NCC(c1ccco1)N1CCc2ccccc2C1 (stereo not drawn),-30.4%
4,CC(=O)NC1=NN(C(C)=O)C(c2cccc([N+](=O)[O-])c2)S1 (stereo not drawn),6.1%
5,Cn1nc(C(=O)OCC(=O)N2CCc3ccccc32)c2ccccc2c1=O,-32.9%
6,COc1ccc(C=O)cc1Cn1ccnc1C.Cl,33.4%
7,O=C(NCc1ccc(Cl)s1)c1cc(COc2c(F)cccc2F)on1,5.08%
8,CN(C(=O)COC(=O)c1ccccc1C(=O)N1CCN(c2ccccc2)CC1)c1ccccc1,-17%
9,CCCCOc1ccc(CON(C(C)=O)C(C)=O)cc1Cl,4.67%
10,CC(=O)NC(=S)Nc1cccc([N+](=O)[O-])c1,-2.27%
11,CCCCn1nc2cc(C(=O)NCc3ccc(OC)cc3)ccc2c1OCC,-12.3%
12,C=CCc1cccc(CNc2nc3ccccc3n2C)c1O,7.54%
13,Cc1ccc2c(c1)c1ncnc(N3CCN(c4ccccc4)CC3)c1n2C,-12.3%
14,COc1cc([C@H]2c3c(cc(OC)c(O)c3OC)C[C@@H](CO)[C@@H]2CO[C@@H]2O[C@H](CO)[C@@H](O)[C@H](O)[C@H]2O)cc(OC)c1O,-16.9%
15,Cc1cccc(NC(=O)CCCn2cc([N+](=O)[O-])cn2)n1,-11.1%
16,Cl.N=c1sccn1CC(=O)Nc1cccc2ccccc12,2.9%
17,COCCN(CCOC)S(=O)(=O)c1ccc(C(=O)Nc2nnc(COC)o2)cc1,18.3%
18,O=C(CC1CCCCC1)NCc1ccccn1,2.73%
19,COc1cccc(N(CC(=O)NCCSCc2ccc(Cl)cc2)S(C)(=O)=O)c1,2.15%
20,CC(C)(C)NC(=O)CCc1nnc(Cc2c[nH]c3ccccc23)o1,1.86%
21,Cc1ccc(NC(=O)C(=O)NCC2CCCN2S(=O)(=O)c2cccs2)c(C)c1 (stereo not drawn),-26.9%

row,Structure (SMILES),"hERG current change (%, negative = inhibition) at 10uM"
1,Cc1cc(NC(=O)CSc2nc3c(C)ccc(C)c3cc2C#N)no1,15.9%
2,CCN(C(=O)CSc1nnnn1-c1ccccc1)C1CCS(=O)(=O)C1 (stereo not drawn),-0.858%
3,O=C1CN(C(=O)COC(=O)C2CCN(S(=O)(=O)c3ccccc3C(F)(F)F)CC2)c2ccccc2N1,-23.2%
4,COc1ccc(S(=O)(=O)N2CCCC(C(=O)NCc3cccnc3)C2)cc1 (stereo not drawn),-18.3%
5,COc1ccc(CCNC(=O)CCNC(=O)c2ccco2)cc1,2.58%
6,Cc1ccccc1OCCC(=O)N(CC(C)C)c1c(N)n(Cc2ccccc2)c(=O)[nH]c1=O,-64.4%
7,CCN1CCN(c2nc(C)c3c(n2)CC(C)CC3=O)CC1 (stereo not drawn),12.8%
8,O=C(NCc1ccco1)c1cc([N+](=O)[O-])ccc1N1CCOCC1,-25.4%
9,CCc1cc2ccc(C)cc2nc1SCC(=O)Nc1c[nH]c(=O)[nH]c1=O,17.1%
10,CC1(c2nnc(Cc3ccccc3)o2)CC(c2ccc(Br)cc2)=NO1 (stereo not drawn),10.1%
11,CC(C)NS(=O)(=O)c1ccc(OCC(=O)N(C)Cc2ccccc2)cc1,-9.49%
12,CCOc1ccc(NC(=O)CN(C)C(=O)C(C)N2C(=O)c3ccccc3C2=O)cc1OCC (stereo not drawn),-15.9%
13,C/C(CC(=O)NC12CC3CC(CC(C3)C1)C2)=N\NC(=O)c1cnccn1,11.9%
14,COS(=O)(=O)[O-].Cn1c(-c2ccc3ccccc3n2)[n+](C)c2ccccc21,6.5%
15,CN(C)c1ccc(/C=C/c2nnnn2-c2ccccc2)cc1,-1.34%
16,COc1ccc(OCC(=O)NCCC2=CCCCC2)c([N+](=O)[O-])c1,-10.7%
17,CC(C)Cc1nc(N2CCOCC2)c(C#N)c2c1CCC2,-2.57%
18,CC(C)NC(=O)NC(=O)CN1C(=O)NC(Cc2c[nH]c3ccccc23)C1=O (stereo not drawn),31.3%
19,NC(=O)[C@@H]1CCCNc2c(F)cc([N+](=O)[O-])cc2C(=O)N[C@@H](CO)C(=O)N[C@@H](Cc2ccc(O)cc2)C(=O)N1,-3.66%
20,Cc1ccccc1-c1nnc(SCC(=O)NC2CCCC2)o1,-6.58%
21,COc1ccc(NC(=O)CN(C)C(=O)c2cccc(Oc3ccccc3)c2)cc1,-18.4%

# — article PMC4336329 (PLoS ONE, 2015)
